Results are given in words; binding and its absence hold for the method and conditions named. Binding seen in cells or lysates may run through a third protein. Some results given as binding are weak or reduced against the parent protein; the word gives no strength. For some assays here: Sequences can lack the tags named with a protein.

Sequences of proteins named here, by UniProt entry; tags and fusion partners are left off.
UniProt P08670: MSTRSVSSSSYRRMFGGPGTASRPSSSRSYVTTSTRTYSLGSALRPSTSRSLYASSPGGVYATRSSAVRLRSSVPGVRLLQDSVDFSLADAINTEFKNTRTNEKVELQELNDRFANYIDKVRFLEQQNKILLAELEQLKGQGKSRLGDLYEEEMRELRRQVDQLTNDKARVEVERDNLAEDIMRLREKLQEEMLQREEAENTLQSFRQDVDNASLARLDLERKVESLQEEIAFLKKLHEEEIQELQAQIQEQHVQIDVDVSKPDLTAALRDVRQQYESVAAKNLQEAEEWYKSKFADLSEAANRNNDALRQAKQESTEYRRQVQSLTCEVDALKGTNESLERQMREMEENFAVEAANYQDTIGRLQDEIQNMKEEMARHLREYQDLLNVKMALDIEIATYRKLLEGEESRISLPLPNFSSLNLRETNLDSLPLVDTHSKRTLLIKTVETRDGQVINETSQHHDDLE

The target in assay [1] is Tripartite motif-containing 44 (TRIM44), endogenous (human (endogenous in 769-P, Caki-1, OSRC-2, ACHN)) (UniProt Q96DX7). As to the kind of experiment: co-IP; isolated cytoplasmic proteins of 769-P, OSRC-2, Caki-1 and ACHN cells.
The target is the same in assay [2]. As to the kind of experiment: co-IP; isolated nuclear proteins of 769-P, OSRC-2, Caki-1 and ACHN cells.
Assay [3] shares this target. As to the kind of experiment: proximity ligation; Duolink PLA on fixed, permeabilised ccRCC cells (769-P, Caki-1; further lines in Fig. S5F) with antibodies against TRIM44 (1:100) and vimentin (1:500).
The target is the same in assay [4]. Kind of assay: co-IP; whole lysates (RIPA buffer) of 769-P, Caki-1, OSRC-2 and ACHN cells; primary antibody 24 h at 4 °C, protein A/G beads, Western blot. (In general: In western blotting, separated proteins are transferred to a membrane and probed.)
Assay [5] concerns the target Myc-TRIM44-ΔB (TRIM44 with a deleted BB domain, del 174-215) (human) (UniProt Q96DX7). Kind of assay: co-IP; HEK-293T cells co-transfected with HA-vimentin and MYC-TRIM44 or TRIM44 deletion mutants; lysates immunoprecipitated with MYC-tag antibody, Western blot with HA-tag antibody.
Assay [6] deals with T1, Myc-TRIM44-BB (B-box domain only, amino acids 174-215) (human) (UniProt Q96DX7).
T1 sequence: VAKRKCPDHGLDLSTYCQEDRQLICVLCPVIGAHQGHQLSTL
The assay is described as above.

Assay [7] deals with T2, Myc-TRIM44-CC (coiled-coil domain only, amino acids 290-325) (human) (UniProt Q96DX7).
T2 sequence: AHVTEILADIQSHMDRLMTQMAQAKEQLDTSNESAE
The assay is described as above.

In assay [8] the target is Myc-TRIM44-ZF (zinc finger domain only, amino acids 13-48) (human) (UniProt Q96DX7). The description is as above.

“vimentin, endogenous (from UniProt P08670 1-466)”: the binding result is given as “binds” in assay [1], “binds weakly” in assay [2], “binds” in assay [3] and “binds” in assay [4].

For the substance HA-vimentin (from UniProt P08670 1-466), the binding result is on record as “no binding” in assay [5], “binds” in assay [6], “no binding” in assay [7] and “no binding” in assay [8].
